In all, about 340,000 compounds went through this assay and about 6,900 (2%) were called active. Cut-off read from the data, not from the text of the source: active = inhibition above about 30%; inactive = below that, where a call was filed. The entries are a selection whose mix differs from that of the whole data set. The source gives no active or inactive call for entries shown without one.
What follows are compounds tested against D(2) dopamine receptor (Homo sapiens) (UniProt P14416) (assay: HTS Assay for Allosteric Antagonists of the Human D2 Dopamine Receptor: Primary Screen for Antagonists). Conditions: HEK293 TREx D2 cells, calcium flux, dopamine EC80; at 10 µM; stronger effect = higher value.
Summary of the method: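 Read-out: kinetic calcium fluorescence (1 cycle/s) in inducible HEK293 T-REx D2 cells after an EC80 dopamine addition that followed 180 s compound preincubation. Loss of the dopamine response indicates antagonism.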
Note: 0% is about no effect.

Chain of UniProt P14416 (P14416 whole entry, looked up): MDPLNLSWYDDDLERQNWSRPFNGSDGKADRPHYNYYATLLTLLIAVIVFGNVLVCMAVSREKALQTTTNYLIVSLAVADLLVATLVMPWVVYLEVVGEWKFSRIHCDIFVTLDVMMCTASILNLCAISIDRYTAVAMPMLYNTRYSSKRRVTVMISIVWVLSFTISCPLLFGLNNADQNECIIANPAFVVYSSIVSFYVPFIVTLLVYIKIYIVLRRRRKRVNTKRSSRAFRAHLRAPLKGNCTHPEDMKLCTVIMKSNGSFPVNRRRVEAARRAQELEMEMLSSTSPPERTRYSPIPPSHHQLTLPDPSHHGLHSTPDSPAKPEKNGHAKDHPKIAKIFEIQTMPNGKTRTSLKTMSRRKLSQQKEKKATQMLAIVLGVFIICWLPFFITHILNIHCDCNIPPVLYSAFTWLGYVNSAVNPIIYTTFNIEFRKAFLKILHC

| SMILES | inhibition |
| --- | --- |
| COc1ccc(CCNC(=O)c2nnc(Cc3ccc(Cl)cc3)o2)cc1OC | 5.47% |
| O=C(NCC(c1ccco1)S(=O)(=O)c1ccc(Cl)cc1)c1ccccc1F (stereo unspecified) | 2.79% |
| Cc1ccc2oc(=O)c3cnn(CC(=O)Nc4cccc(C(F)(F)F)c4)c3c2c1 | 2.71% |
| CCCc1nnc(NC(=O)Cc2coc3cc(C)cc(C)c23)s1 | -16.7% |
| Cc1ccc(C(=O)N2CCc3cc(CNC(=O)COc4ccccc4)ccc32)cc1 | 15.5% |
| CCCN1CCN(CCCNC(=O)c2cnn(-c3ccc(F)cc3)c2-n2cccc2)CC1 | 2.47% |
| CCOc1ccc(Nc2nc3ccccc3n3c(CC)nnc23)cc1 | 17.6% |
| CCOC(=O)C1=C(c2ccccc2)NC(SCC(=O)Nc2ccc(C)cc2)=C(C#N)C1c1ccco1 (stereo unspecified) | active: 54.9% |
| O=C(Cn1c(=O)n(-c2ccccc2)c(=O)c2sc3ccccc3c21)N1CCCC1 | 5.14% |
| COc1ccc(C)cc1NC(=O)NC1CCCCCCC1 | active: 32% |
| CSc1cccc(NC(=O)CN(c2ccccc2)S(=O)(=O)N(C)C)c1 | 0.0641% |
| COc1ccc(C2C(=O)N(C3CCC(C)CC3)CC(=O)N2CCc2ccccc2)cc1OC (stereo unspecified) | 2.99% |
| CC1CCN(S(=O)(=O)c2ccc3c(c2)N(CC(=O)NC(C)c2ccccc2)C(=O)CO3)CC1 (stereo unspecified) | -12.5% |
| Cc1cc(N2CCCCC2)nc2ccc(NC(=O)c3cccc(F)c3)cc12 | 11.2% |
| Nc1c(-c2nc(-c3ccc(Cl)cc3)cs2)c2ccccn2c1C(=O)c1ccc2c(c1)OCO2 | -5.97% |
| COCCCNC(=O)c1cc2c(=O)n3cccc(C)c3nc2s1 | 1.26% |
| Cc1c(C)n(Cc2ccc(Cl)cc2)c2ccc(C(=O)NCCc3ccc(S(N)(=O)=O)cc3)cc12 | 18.4% |
| O=S(=O)(Nc1cccc(-c2ccc(N3CCCCC3)nn2)c1)c1cccc(F)c1 | -5.54% |
| CCCCc1nc2ccccc2n2c(-c3ccc(C)cc3)c3c(=O)n(C)c(=O)n(C)c3c12 | -10.3% |
| CC1CCc2c(sc(NC(=O)CCCOc3ccc(C(C)(C)C)cc3)c2C(N)=O)C1 (stereo unspecified) | 1.01% |
| O=c1c2ccccc2nc2n1CC/C2=C/N1CCN(c2cccc(C(F)(F)F)c2)CC1 | active: 48.3% |

| SMILES | inhibition |
| --- | --- |
| COc1ccc2ccccc2c1/C=N/NC(=O)c1ccc([N+](=O)[O-])cc1 | active: 70.5% |
| CCOc1ccc(-n2c(=O)c3c(C)c(C)sc3n(CC(=O)c3ccccc3)c2=O)cc1 | -2.66% |
| CCc1ccc(-n2nc(C)c3c(C)cc(=O)n(CC(=O)Nc4ccc(C)c(F)c4)c32)cc1 | 14.1% |
| Cn1c(=O)n(C)c2cc(NS(=O)(=O)c3ccc(Br)cc3)c(NCc3ccccc3)cc21 | -6.92% |
| CCN(CC)CCCNC(=O)c1c(C)oc2ncn(CC(C)C)c(=O)c12 | -5.57% |
| CN(C)c1ccc(NC(=O)CCSc2nc(-c3ccco3)cc(C(F)(F)F)n2)cc1 | 16% |
| CCCCN(C)S(=O)(=O)c1cc(-c2nnc3c4ccccc4c(C)nn23)ccc1C | 22.7% |
| O=C(Cn1c(=O)n(Cc2nc(-c3ccccc3)no2)c(=O)c2cc3c(cc21)OCO3)Nc1ccc(Cl)cc1 | -1.6% |
| Cc1ccc(C)c(N2CCN(c3ccc(NC(=O)c4cccs4)cc3C(=O)O)CC2)c1 | -9.4% |
| CCc1ccc(NC(=O)CC2C(=O)OCCN2CC)cc1 (stereo unspecified) | -5.96% |
| CCOc1ccccc1NC(=O)C(CC(C)C)NS(=O)(=O)c1ccc2c(c1)CCN2C(C)=O (stereo unspecified) | -13.5% |
| CCOC(=O)c1ccc(N2C(=O)c3n[nH]c(-c4cccs4)c3C2c2cccc(F)c2)cc1 (stereo unspecified) | 17.2% |
| CCc1ccccc1NC(=O)Cn1ncc2c(C)n(Cc3ccccc3F)c(C)c2c1=O | -4.64% |
| CC(C)CNC(=O)CCSc1nc(-c2ccc3c(c2)OCO3)cc(C(F)(F)F)n1 | -18.5% |
| CC(=O)N1c2ccc(S(=O)(=O)N3CCN(c4ccc(C)cc4C)CC3)cc2CC1C (stereo unspecified) | 2.14% |
| O=C(Cn1ccn(-c2ccc(F)cc2)c(=O)c1=O)NCCc1ccccc1 | -20.3% |
| CCOc1ccc(N(c2nc(-c3ccc(OC)c(OC)c3)no2)c2nc(-c3ccc(OC)c(OC)c3)no2)cc1 | 15.8% |
| COc1ccccc1N(CC(=O)NCCSCc1ccccc1Cl)S(C)(=O)=O | 7.74% |
| CCOC(=O)c1cnc2ccc(C)cc2c1Nc1ccc(OCc2ccccc2Cl)cc1 | -3.15% |
| O=C(c1cc(-c2ccc(Br)cc2)n[nH]1)N1CCN(S(=O)(=O)c2ccc(Br)cc2)CC1 | -2.41% |
| CCC(=O)N1N=C(c2ccc(OC)cc2)CC1c1cn(-c2ccccc2)nc1-c1cccs1 (stereo unspecified) | -10.2% |

| SMILES | inhibition |
| --- | --- |
| O=[N+]([O-])c1cc(Cl)ccc1NCCNc1ncc(C(F)(F)F)cc1Cl | active: 36.2% |
| CCOC(=O)c1c(SCC(=O)Nc2nc3ccc(C)cc3s2)nc(=O)[nH]c1C | -28.3% |
| Cc1ccc(Cl)cc1NC(=O)COC(=O)CC(C)(C)C | active: 40.7% |
| Cc1cccc(CSc2cn(CC(=O)N3CCCCC3)c3ccccc23)c1 | 7.99% |
| Cc1cc(C)c2sc(N(Cc3cccnc3)C(=O)CCS(=O)(=O)c3ccccc3)nc2c1 | -20.4% |
| O=C(Cn1cc(SCc2cccc(F)c2)c2ccccc21)N1CCOCC1 | -1.53% |
| COc1ccc2oc(-c3ccc(C)c(NC(=O)c4cccnc4)c3)nc2c1 | 13.6% |
| COc1cc(OC)c(NC(=O)CSc2nccn2C)cc1Cl | 15.9% |
| CC1CCN(c2oc(-c3cccs3)nc2S(=O)(=O)c2ccc(Cl)cc2)CC1 | 11.2% |
| Cc1ccc(CNC(=O)c2ccc(-n3c(C)cc4c3CCCC4)cc2)cc1 | -5.78% |
| O=C(NC1CCN(Cc2ccccc2)CC1)c1ccccc1OCc1ccccc1Cl | active: 84.5% |
| Cc1ccc(OCC(=O)Nc2ccc3nc(SCC(=O)N4CCCC4)sc3c2)cc1 | 1.21% |
| CC(C)C(NS(=O)(=O)c1ccc2c(c1)oc(=O)n2C)C(=O)N1CCN(C2CCCCC2)CC1 (stereo unspecified) | active: 30.6% |
| CNC(=O)c1ccc2c(c1)N=C(C)c1cc(C)ccc1S2 | -6.37% |
| O=C(CSc1nc2cc(C(=O)NC3CCCC3)ccc2c(=O)n1CC1CCCO1)c1ccc(F)cc1 (stereo unspecified) | 1.72% |
| CCCCn1c(COc2cccc(OC)c2)nc2ccccc21 | -0.0239% |
| COc1ccc(CCN2CC(C(=O)NCCc3ccc(C)cc3)CC2=O)cc1OC (stereo unspecified) | -4.97% |
| Cc1onc(-c2ccccc2)c1C(=O)OCC(=O)Nc1ccc(Cl)cc1 | active: 37.4% |
| COc1cc(NC(=O)c2cc3c(=O)oc4ccc(C)cc4c3s2)cc(OC)c1OC | -1.53% |

Source: PubChem BioAssay AID485344 (National Center for Advancing Translational Sciences (NCATS), 2010)
